Assay results: the supplement of paper PMC8728848
The other results are listed elsewhere or left out.

Columns and labels:
Assay in all cases: glycan array binding signal (z-score within array); higher = stronger binding
Settings in all cases: glycan notation: IUPAC condensed, linker removed
Fuc(a1-4)GlcNAc = target: Fuc(a1-4)GlcNAc
Outline: (§1)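 Negative Z-scores can be read as non-binding. The Z-score is calculated within each array and then averaged across arrays of one protein sequence at different concentrations or buffers and across linkers. Arrays, 3228 in all, were curated from the Consortium for Functional Glycomics database and kept only where the protein sequence was available.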

Fuc(b1-3)GlcNAc = target: Fuc(b1-3)GlcNAc
Outline: as §1

Gal(a1-2)Gal = target: Gal(a1-2)Gal
Outline: as §1

Gal(a1-3)Gal = target: Gal(a1-3)Gal
Outline: as §1

Gal(a1-3)Gal(b1-3)GlcNAc = target: Gal(a1-3)Gal(b1-3)GlcNAc
Outline: as §1

[1] = target: Gal(a1-3)Gal(b1-3)GlcNAc(b1-2)Man
Outline: as §1

[2] = target: Gal(a1-3)Gal(b1-3)GlcNAc(b1-2)Man(a1-3)[Gal(a1-3)Gal(b1-3)GlcNAc(b1-2)Man(a1-6)]Man(b1-4)GlcNAc(b1-4)GlcNAc
Outline: as §1

[3] = target: Gal(a1-3)Gal(b1-3)GlcNAc(b1-3)GalNAc
Outline: as §1

[4] = target: Gal(a1-3)Gal(b1-3)GlcNAc(b1-6)GalNAc
Outline: as §1

[5] = target: Gal(a1-3)Gal(b1-3)[Fuc(a1-4)]GlcNAc(b1-2)Man(a1-3)[Gal(a1-3)Gal(b1-3)[Fuc(a1-4)]GlcNAc(b1-2)Man(a1-6)]Man(b1-4)GlcNAc(b1-4)GlcNAc
Outline: as §1

Gal(a1-3)Gal(b1-4)Glc = target: Gal(a1-3)Gal(b1-4)Glc
Outline: as §1

Gal(a1-3)Gal(b1-4)GlcNAc = target: Gal(a1-3)Gal(b1-4)GlcNAc
Outline: as §1

[6] = target: Gal(a1-3)Gal(b1-4)GlcNAc(b1-2)Man
Outline: as §1

[7] = target: Gal(a1-3)Gal(b1-4)GlcNAc(b1-2)Man(a1-3)[Gal(a1-3)Gal(b1-4)GlcNAc(b1-2)Man(a1-6)]Man(b1-4)GlcNAc(b1-4)GlcNAc
Outline: as §1

[8] = target: Gal(a1-3)Gal(b1-4)GlcNAc(b1-3)GalNAc
Outline: as §1

[9] = target: Gal(a1-3)Gal(b1-4)GlcNAc(b1-6)GalNAc
Outline: as §1

[10] = target: Gal(a1-3)Gal(b1-4)[Fuc(a1-3)]GlcNAc
Outline: as §1

[11] = target: Gal(a1-3)Gal(b1-4)[Fuc(a1-3)]GlcNAc(b1-2)Man(a1-3)[Gal(a1-3)Gal(b1-4)[Fuc(a1-3)]GlcNAc(b1-2)Man(a1-6)]Man(b1-4)GlcNAc(b1-4)GlcNAc
Outline: as §1

Gal(a1-3)GalNAc = target: Gal(a1-3)GalNAc
Outline: as §1

[12] = target: Gal(a1-3)[Gal(a1-4)]Gal(b1-4)GlcNAc
Outline: as §1

[13] = target: Gal(a1-4)Gal(b1-3)GlcNAc(b1-2)Man(a1-3)[Gal(a1-4)Gal(b1-3)GlcNAc(b1-2)Man(a1-6)]Man(b1-4)GlcNAc(b1-4)GlcNAc
Outline: as §1

Gal(a1-4)Gal(b1-4)Glc = target: Gal(a1-4)Gal(b1-4)Glc
Outline: as §1

Gal(a1-4)Gal(b1-4)GlcNAc = target: Gal(a1-4)Gal(b1-4)GlcNAc
Outline: as §1

[14] = target: Gal(a1-4)Gal(b1-4)GlcNAc(b1-2)Man(a1-3)[Gal(a1-4)Gal(b1-4)GlcNAc(b1-2)Man(a1-6)]Man(b1-4)GlcNAc(b1-4)GlcNAc
Outline: as §1

[15] = target: Gal(a1-4)Gal(b1-4)GlcNAc(b1-3)Gal(b1-4)Glc
Outline: as §1

Gal(a1-4)GlcNAc = target: Gal(a1-4)GlcNAc
Outline: as §1

Gal(a1-6)Glc = target: Gal(a1-6)Glc
Outline: as §1

Gal(b1-2)Gal = target: Gal(b1-2)Gal
Outline: as §1

Gal(b1-3)Gal = target: Gal(b1-3)Gal
Outline: as §1

Gal(b1-3)Gal(b1-4)GlcNAc = target: Gal(b1-3)Gal(b1-4)GlcNAc
Outline: as §1

Gal(b1-3)GalNAc = target: Gal(b1-3)GalNAc
Outline: as §1

[16] = target: Gal(b1-3)GalNAc(a1-3)[Fuc(a1-2)]Gal(b1-4)Glc
Outline: as §1

[17] = target: Gal(b1-3)GalNAc(a1-3)[Fuc(a1-2)]Gal(b1-4)GlcNAc
Outline: as §1

Gal(b1-3)GalNAc(b1-3)Gal = target: Gal(b1-3)GalNAc(b1-3)Gal
Outline: as §1

[18] = target: Gal(b1-3)GalNAc(b1-3)Gal(a1-4)Gal(b1-4)Glc
Outline: as §1

[19] = target: Gal(b1-3)GalNAc(b1-4)Gal(b1-4)Glc
Outline: as §1

[20] = target: Gal(b1-3)GalNAc(b1-4)[Neu5Ac(a2-3)]Gal(b1-4)Glc
Outline: as §1

Gal(b1-3)GlcNAc = target: Gal(b1-3)GlcNAc
Outline: as §1

B1: Gal 8 (Homo sapiens) (protein)
chain: MLSLNNLQNIIYNPVIPYVGTIPDQLDPGTLIVICGHVPSDADRFQVDLQNGSSVKPRADVAFHFNPRFKRAGCIVCNTLINEKWGREEITYDTPFKREKSFEIVIMVLKDKFQVAVNGKHTLLYGHRIGPEKIDTLGIYGKVNIHSIGFSFSSDLQSTQASSLELTEISRENVPKSGTPQLQTVSPSWDLQGHGSETFCSVLWTRVFLEIAFCRPIGLTVASFQSLPFAARLNTPMGPGRTVVVKGEVNANAKSFNVDLLAGKSKDIALHLNPRLNIKAFVRNSFLQESWGEEERNITSFPFSPGMYFEMIIYCDVREFKVAVNGVHSLEYKHRFKELSSIDTLEINGDIHLLEVRSW
Fuc(a1-4)GlcNAc
  glycan array binding signal (z-score): -0.061
Fuc(b1-3)GlcNAc
  glycan array binding signal (z-score): -0.402
Gal(a1-2)Gal
  glycan array binding signal (z-score): -0.328
Gal(a1-3)Gal
  glycan array binding signal (z-score): -0.358
Gal(a1-3)Gal(b1-3)GlcNAc
  glycan array binding signal (z-score): -0.25
[1]
  glycan array binding signal (z-score): -0.165
[2]
  glycan array binding signal (z-score): -0.354
[3]
  glycan array binding signal (z-score): -0.354
[4]
  glycan array binding signal (z-score): -0.295
[5]
  glycan array binding signal (z-score): -0.352
Gal(a1-3)Gal(b1-4)Glc
  glycan array binding signal (z-score): -0.093
Gal(a1-3)Gal(b1-4)GlcNAc
  glycan array binding signal (z-score): -0.309
[6]
  glycan array binding signal (z-score): -0.252
[7]
  glycan array binding signal (z-score): 0.506
[8]
  glycan array binding signal (z-score): -0.316
[9]
  glycan array binding signal (z-score): -0.349
[10]
  glycan array binding signal (z-score): -0.4
[11]
  glycan array binding signal (z-score): -0.356
Gal(a1-3)GalNAc
  glycan array binding signal (z-score): -0.387
[12]
  glycan array binding signal (z-score): -0.39
[13]
  glycan array binding signal (z-score): -0.352
Gal(a1-4)Gal(b1-4)Glc
  glycan array binding signal (z-score): -0.254
Gal(a1-4)Gal(b1-4)GlcNAc
  glycan array binding signal (z-score): -0.284
[14]
  glycan array binding signal (z-score): -0.357
[15]
  glycan array binding signal (z-score): 0.691
Gal(a1-4)GlcNAc
  glycan array binding signal (z-score): -0.364
Gal(a1-6)Glc
  glycan array binding signal (z-score): -0.035
Gal(b1-2)Gal
  glycan array binding signal (z-score): -0.353
Gal(b1-3)Gal
  glycan array binding signal (z-score): -0.076
Gal(b1-3)Gal(b1-4)GlcNAc
  glycan array binding signal (z-score): -0.178
Gal(b1-3)GalNAc
  glycan array binding signal (z-score): -0.254
[16]
  glycan array binding signal (z-score): 0.682
[17]
  glycan array binding signal (z-score): 1.59
Gal(b1-3)GalNAc(b1-3)Gal
  glycan array binding signal (z-score): -0.297
[18]
  glycan array binding signal (z-score): 0.019
[19]
  glycan array binding signal (z-score): -0.151
[20]
  glycan array binding signal (z-score): 0.192
Gal(b1-3)GlcNAc
  glycan array binding signal (z-score): -0.24
